The text below walks through data of the RNAGym collection of RNA variant scans (doi:10.7554/elife.90254).

B1: LINE1-mini (parent)
chain: GGCAGAGCUCAACACAGCGUGGCAAAGUGGCUGUGGCUAGACUGCC

Read counts are not given, so values of variants with three or more changes are uncertain.

This data set covers variants of B1. Description: self-cleavage, relative activity (ratio to wild type); higher = more cleavage; in vitro, sequencing; the parent is a self-cleaving ribozyme.
With GGCACAGCUCAACACAGCGUGGUGAAGUGCCUGUGGCUAGACUGCC, the self-cleavage is 0.04.
Turning to GGCACAGCUCAACAUAGCGUGGCAAUGUGGCUGUGGCUAGACUGCG, the self-cleavage worked out at 0.02.
On to GGCACAGCUCAACAAAGCGUGGCAAAAUGGCUGUUGCUAGACUGCC, for which the self-cleavage was 0.02.
GGCACAGCUUAACAAAGCGUGGCAAAGUGGCUGUGGCUAGACUGCC: the self-cleavage stood at 0.02.
As for GGCACAACUUAACGCAGCGUAGCAAAGUGGCGGUGGCUAGACUGCC, the figure is 0.06.
Consider GGCACAGCUUAACGCGGCGUGGCAAACUGGCUGUUGCUAGACUGCC, for which the self-cleavage is 0.02.
For GGCACAGCUCAACACAGAGUGGCAAACAGGCUGUGCCUAGACUGCC, the self-cleavage came out at 0.05.
As to GGCACAGCUCAAGACAGCGUGGCAAGGUGGCUGUCGCCAGACUGCC, the self-cleavage came to 0.
Regarding GGCACAGCUCAACACAGCGUGGUAAAGUCGCUGUGGCUAUACUGCC, the self-cleavage turned out to be 0.03.
With GGCACAGCUCAACACAGCGUGGAACAAUGACUGUGGCUAGACUGCC, the self-cleavage worked out at 0.02.
Consider GGCACAGCUUCACACAGCGUGGCAAAGUGGCUGUGGCUAGACUGCC, for which the self-cleavage was 0.03.
As to GGCACAGCUCAAUACAGCGUGGCAAAGUUGCUGUGGCUAGACUGCC, the self-cleavage was 0.06.
As to GGCACAGCUCAACACAGAGUGGCAAAGUGGCUGUGGCAAGACUGCC, the self-cleavage amounted to 0.08.
As for GGCACAGCUAAACGCAGCGUGGCAAAGUGGCUGUGGCUAGACCGCC, the figure is 0.03; as for GGCACAGCUUCACACAGCGUGGCGAAGUGGCUGUUGCUAGACUGCC, 0.02.
As to GGCACAGCUUAACACGGCGUGGCAAAGUGGCUGUGGCUAGACUGCC, the self-cleavage turned out to be 0.05.
Regarding GGCACAGCUCAAAACAGCGUGGCAAAGUGCCUGUGGCUAGACUGCC, the self-cleavage was 0.02.
GGCACAGCUCAAAACAGCGUGGCAAAGUGUCUGUGGCUAGACUGCC: the self-cleavage turned out to be 0.03.
As to GGCACAGCUCAACACAGCGUGGUACAGUGGAUGUGGCAAGACUGCC, the self-cleavage was found to be 0.03.
As for GGCACAGCUUUACACAGCCUGGCCAAGUGGCUGUGGCUAGACUGCC, the self-cleavage was found to be 0.01.
Next, GGCACAGCUCAACAGGGCGUGGCAAAGUGGCUGUGGCUAGACUGCC: 0; GGCACAGCUAAACACAGCGUGGCAAAGUGGCUGUGGCUAGAUUGCC: 0.05; GGCACAGCUCAACAGAGCGUGGCAAAGUGGCUGUGGCUAGACCGCC: 0.01.
GGCACAGCUCAACACAGCGUGGGAAAUUGGCUGUGGCGAGACUGCC: the self-cleavage was 0.01.
Regarding GGCACAGCUCAAAACAGGGUGGCAAAGUGGCUGUGGAUAGACUGCC, the self-cleavage was determined as 0.01.
Next, GGCACAGCUCAACACAGCGUGGUAAAGUGGCUGUGGCUGGACUGCC: 0.04; GGCACAGCUCAACACAGCGUGGCAAAGUGGCUGUGGGUAUUCUGCC: 0.08.
Next, GGCACAGCUAACCAAGGCGUGGCAAAGUGGCUGUGCCUAGACGGCC: 0; GGCACAGCUCAACAAAGCGUGGCAAAGUGGCUGUGGCAACACUGCC: 0.2.
As to GGCACAACUCAACACAGCGUGGAAAAGUGGCUGUGGCUAAACUGCC, the self-cleavage came to 0.15.
As to GGCACAGCUCAAGACAGAGGGGCAAAGUGGCUGUGGCUGGUCUGCC, the self-cleavage was found to be 0.01.
For the variant GGCACAGCUCAACACAGGGUGGCAGAGUGGCUGUGGAUAGACUGCC, the self-cleavage amounted to 0.07.
On to GGCACAGCUGAACACAGCGCGGCAAAGUGGCUGUGGCAAGAGUGUC, for which the self-cleavage stood at 0.02.
As for GGCACAGCUCAACACAGCGUGGAAAAGAGGCUGUGGCUAGACUGCC, the self-cleavage came to 0.34.
As to GGCACAGCUUAACACGGCGUGGCAAAGUGGCUGUGGCUAGACUACC, the self-cleavage was found to be 0.
Next, GGCACAGCUCAAAACAGCGUGGCAAAGUGGCUGUGGAUAGACUGGC: 0.5.
With GGCACAGCUGAACACAGCGUGGCAGAGUGGCUGUGGCUAGACUGAC, the self-cleavage turned out to be 0.02.
For the variant GGCACAGCUCAACACAGGGUUGUAAAGUGGUUGUGGCUAGACUGCC, the self-cleavage amounted to 0.09.
For GGCACAGCUCAACACAGCGUGGUAAAGUGGCUGUGGCUAGACUGAC, the self-cleavage came to 0.14.
GGCACAGCUAAACACAGCGUCGCAAAGUGGUUGUGGCUAUACUGCC: the self-cleavage was found to be 0.02.
Next, GGCACAGCUCAACACAGGUUGGCAAAGUGGCUGUGGCUAGACUGCC: 0.06; GGCACAGCUCAACACAGCGUGGUAAAGUGGCUGUGGGUAGACUGCC: 0.1; GGCACAGCUCAACAAAGCGUGGAAAAGUGGCUGUGGCUCGACUGCC: 0.01.
As for GGCACAGCUCAACACAGCGUGGCAAAGUGGGUGUGGCUAGACUGCA, the figure is 0.09; as for GGCACAGCUCAAAACAGCGUGGCAAAGUGGCUGUUGCUAGACGGCC, 0.01.
As for GGCACAGCUCAACAUAGCCUGGCAAAGUGGCUGUGCCUAGACUGCC, the figure is 0.08; as for GGCACAGCUCAACAGAGCGUGGCAAAGUGGCCGUGGCUAGACUGUC, 0.01; as for GGCACAGCUCAAGACAGCGUGGCAAAGUGGCUGUGGCUCGACUGCC, 0.05.
Consider GGCACAGCUCAACACAGCGUGGGUAAGUGGCUGUGGCUAGACUGCC, for which the self-cleavage is 0.03.
As for GGCACAGCUCAACACAGAGUUGCAAAGUGGCUGUGGCUAGACUGCC, the figure is 0.06; as for GGCACAGCUCAACAAAGCGUGGCAAAAUGGCUGUGCCUAGACUGCC, 0.06; as for GGCACAGCUCAAUACAGAAUGGCAAAGUGGCUGUGGCUAGACUGCC, 0.02.
As to GGCACAGCUCAACACAGAGCGGCAAAGUGGCCGUGGCUAGACUGCC, the self-cleavage was found to be 0.03.
Regarding GGCACAGCUCAACAUAGCGUCGCAAAGUCGCUGUGGCUAUACUGCC, the self-cleavage worked out at 0.07.
Consider GGCACAGCUCAAAACAGCGUGGCCAAGCGGCUGUGGCUAGACUGCC, for which the self-cleavage is 0.04.
Take GGCACAGCUCAACACAGUGUGGCAAAGUGGCUAUGGCUAGACUGAC: the self-cleavage stood at 0.01.
